Source: PubChem BioAssay AID493208 (National Center for Advancing Translational Sciences (NCATS), 2011)
In all, about 44,000 compounds went through this assay and about 340 (0.77%) were called active. Inconclusive results (about 5%) are left out. The call rests on the fitted dose curve; in most records, active means well fitted inhibition curve with a large enough effect; inconclusive means small, poorly fitted or top-dose-only effect; inactive means flat fitted curve, though single readings scatter. Some of the results follow.

test: Acumen qHTS Assay for Inhibitors of the mTORC1 Signaling Pathway in MEF (Tsc2-/-, p53-/-) Cells: Sytravon; conditions: phospho-rpS6 immunofluorescence/PI, 24 h; series mostly up to 38.3 µM; activity change, negative = inhibition: at the top concentration;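 further: plate controls were DMSO for no effect and rapamycin for full effect; nearly all actives have a fitted effect of over 50% in size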
How it was run: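 Read-out: phospho-S6 Alexa-488 intensity over PI intensity per well, scored as % active cells using thresholds from rapamycin (7.5 nM) and DMSO controls. Tsc2-/-, p53-/- MEFs exposed to compound for 24 h; PI cell count recorded as viability.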

Activity change, negative = inhibition, inactive:
O=C(NCc1ccc(F)cc1)c1cc2c(s1)-c1ccccc1SC2 -0.133%
COc1ccc(NC(=O)c2cc3c(=O)n(Cc4ccco4)ccc3nc2C)c(OC)c1 0.632%
CCCCOC(=O)c1ccc(NC(=O)/C(C#N)=C/c2ccc(-c3ccccc3)o2)cc1 4.93%
COc1cc2c(=O)n(CCC(=O)NCC3CCCO3)c(=O)n(CC(=O)Nc3c(C)cccc3C)c2cc1OC (stereo unspecified) -3.53%
COc1cc(-c2nnc(SCC(=O)NC(C)C)o2)cc(OC)c1OC -1.32%
CCOc1ccc(CCNC(=O)C2Cc3ccccc3N2C(=O)CC)cc1OCC (stereo unspecified) 11.3%
CC(=O)c1ccc(NC(=O)CSc2ccc3nc(-c4ccccc4)cn3n2)cc1 7.22%
Cc1ccc(-c2cc(C(=O)N3CCN(S(=O)(=O)c4ccc(Br)s4)CC3)[nH]n2)c(C)c1 -12.1%
CN(C)c1ccc(CNC(=O)C(Cc2ccccc2)NS(=O)(=O)c2ccc3c(c2)oc(=O)n3C)cc1 (stereo unspecified) -6.85%
Cc1ccc(N(CC(=O)Nc2ccc(Br)c(C)c2)S(=O)(=O)c2cccs2)cc1 0.568%
Cc1ccc(C)c(NC(=O)Cn2c(=O)n(Cc3cccs3)c(=O)c3cccnc32)c1 -17.4%
COc1ccc(-c2cn3nc(N4CCC(C(=O)Nc5cc(Cl)ccc5OC)CC4)sc3n2)cc1 -6.55%
CC(C)(C)OC(=O)N1CCC(c2c(C(=O)N3CCN(c4ncccn4)CC3)cnn2-c2ccc(F)cc2F)CC1 1.95%
COc1ccc(OC)c(NC(=O)C(CCSC)NS(=O)(=O)c2cccs2)c1 (stereo unspecified) -1.38%
COc1ccc(-c2nc(SCC(=O)N3CCC(C)CC3)n[nH]2)cc1 0%
COc1ccc(C(=O)Nc2ccc(C(=O)OCc3cc(=O)n4nc(C(C)C)sc4n3)cc2)cc1 0%
Cc1ccc(Cl)cc1NC(=O)/C(C#N)=C\c1cn(Cc2ccc(F)cc2)c2ccccc12 3.05%
Cc1ccccc1C(=O)Nc1ccc2nc(SCCOc3ccccc3)sc2c1 -5.41%
CCOC(=O)c1c(S(=O)(=O)NCC(=O)NCc2ccc(C)cc2)c(C)n(C)c1C 0.404%
Cc1cc(SCC(=O)NCc2ccc(Cl)cc2)nc(=O)[nH]1 -2.64%
CCCCCn1c(=O)[nH]c2cc(C(=O)Nc3ccc(F)c(F)c3)ccc2c1=O 8.23%
Cc1ccc(S(=O)(=O)N2CCC(C(=O)NCc3ccccc3Cl)CC2)cc1 2.64%
Cc1cccc(NC(=O)c2cc(S(=O)(=O)NCCc3ccccc3)ccc2F)c1C 6.3%
Cc1ccccc1C(=O)Nc1cccc(OCc2cc(=O)n3c(C)csc3n2)c1 -5.29%
CCN1CCN(Cc2c(O)ccc3c(C)c(-c4ccc(OC)cc4)c(=O)oc23)CC1 -5.77%
CCN(CC)CCOC(=O)c1ccc(NC(=O)c2cc3c(=O)n(CC)c4ccccc4c3s2)cc1 -1.67%
